In PubChem BioAssay AID488969 (Vanderbilt High Throughput Screening Facility, 2010):
Whole data set: some 110,000 compounds, median “z-score” near -0.1, cut for the highest 2% near 2. The list shows a part of the results. The source made the active and inactive calls.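 How the source made its calls: active means z-score in the third read window above 3 or below -3; inactive means the rest.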

target: Metabotropic glutamate receptor 8 (Rattus norvegicus) (UniProt P70579); assay: mGluR8 Gi/Go-coupled signaling modulation – cell-based, rat, thallium flux, HTS, primary screen (AID 488969); conditions: HEK293 rat mGluR8, GIRK (G protein-gated inwardly rectifying potassium channel) thallium flux, FluoZin2; at 10 µM; stronger effect = higher value; submaximal glutamate (EC20) added with thallium
Sequence of UniProt P70579 (P70579 whole entry, looked up): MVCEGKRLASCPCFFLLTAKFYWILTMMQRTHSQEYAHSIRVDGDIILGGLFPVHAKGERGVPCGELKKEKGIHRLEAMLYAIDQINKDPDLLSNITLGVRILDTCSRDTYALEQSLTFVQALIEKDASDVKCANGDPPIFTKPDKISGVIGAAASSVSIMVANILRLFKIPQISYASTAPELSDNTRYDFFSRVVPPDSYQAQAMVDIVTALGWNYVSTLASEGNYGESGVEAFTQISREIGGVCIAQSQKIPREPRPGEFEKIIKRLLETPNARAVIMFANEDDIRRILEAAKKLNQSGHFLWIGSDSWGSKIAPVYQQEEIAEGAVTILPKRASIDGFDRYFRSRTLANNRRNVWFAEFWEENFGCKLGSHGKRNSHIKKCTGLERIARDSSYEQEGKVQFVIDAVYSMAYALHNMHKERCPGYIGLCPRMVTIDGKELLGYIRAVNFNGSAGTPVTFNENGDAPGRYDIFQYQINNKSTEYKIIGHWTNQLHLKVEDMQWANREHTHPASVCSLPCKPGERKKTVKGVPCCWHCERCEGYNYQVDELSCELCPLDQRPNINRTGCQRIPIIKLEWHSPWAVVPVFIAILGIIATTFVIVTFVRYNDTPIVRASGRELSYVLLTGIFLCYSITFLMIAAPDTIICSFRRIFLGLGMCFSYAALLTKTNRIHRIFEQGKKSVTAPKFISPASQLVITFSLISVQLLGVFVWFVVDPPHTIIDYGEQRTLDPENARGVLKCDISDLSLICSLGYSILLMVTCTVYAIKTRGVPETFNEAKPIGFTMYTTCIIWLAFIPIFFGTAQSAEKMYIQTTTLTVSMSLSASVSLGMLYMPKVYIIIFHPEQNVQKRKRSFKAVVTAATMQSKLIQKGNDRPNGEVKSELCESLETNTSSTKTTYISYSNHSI

SMILES	z-score
COc1cc(NC(=O)CN2CCN(S(=O)(=O)c3ccc(C(C)C)cc3)CC2)cc(OC)c1	-0.348
O=C(CN(Cc1ccco1)C(=O)CNS(=O)(=O)c1ccccc1)NC1CCCCC1	-0.479
CC(=O)C(N=Nc1ccccc1)(Sc1nnc(-c2ccccc2)n1-c1ccccc1)C(C)=O	-0.758
CCn1c(=O)c2c3c(sc2n2cnnc12)CCC3	-1.81
C/C(=N\NC(=O)c1ccc(=O)[nH]n1)c1cccnc1	0.48
N=c1n(CCO)c2ccccc2n1Cc1ccc(Cl)cc1	0.111
O=C(NC1CCN(Cc2nnnn2CCc2ccccc2)CC1)c1ccccc1F	0.581
COc1ccc(C2Oc3ccccc3C3=C2C(c2cccs2)n2ncnc2N3)cc1 (stereo not given)	-0.348
Cc1cccc(NC(=O)CSc2nc3c(c(=O)[nH]2)CCC3)c1C	-0.0905
Cc1ccc2c(COC(=O)CC3Sc4ccccc4NC3=O)cc(=O)oc2c1C (stereo not given)	-0.305
COc1cc(-c2nnc(SCC(=O)Nc3ccc4c(c3)OCCO4)o2)cc(OC)c1OC	-0.076
CC(C)CCOP(=O)(c1ccc(N(C)C)cc1)C(O)c1ccccn1 (stereo not given)	active: 5.74
Fc1cccc2sc(Nc3nc4c(F)cccc4s3)nc12	2.09
COc1ccc(NC(=O)C2CC(=O)N(c3cccc(C)c3C)C2)cc1 (stereo not given)	-0.437
C/C(=N\O)C1(C)N(O)C(C)(C)C(c2ccc(F)cc2)=[N+]1[O-] (stereo not given)	0.0959
O=C(CSc1nc2cc(C(F)(F)F)ccc2n1Cc1ccccc1)NC1CCS(=O)(=O)C1 (stereo not given)	-0.137
O=C(NN1CCCCC1)c1cccc(COc2ccc(Cl)cc2)c1	-0.5
Clc1ccc(-c2nc(Cc3ccccc3Cl)no2)cc1	0.619
CCN(/C=N/c1sc2c(c1C#N)CC(C)(C)NC2(C)C)CC	0.541
O=C(NC1CCN(Cc2ccccc2)CC1)c1cc(-c2ccccn2)nc2ccccc12	0.11
Cc1cccc(-n2c(SCC(=O)Nc3nonc3C)nnc2-c2ccoc2C)c1	-0.249
O=C(CCN(NC(=O)c1ccccc1)C1=NS(=O)(=O)c2ccccc21)NC1CCCCC1	0.0129

SMILES	z-score
CCCNS(=O)(=O)c1ccc(NC(=O)Cc2cccs2)cc1	0.302
Cc1ccc(C(=O)CCC(=O)O)cc1	0.219
COCCNS(=O)(=O)c1ccc2c(c1)C(=O)c1cc(S(=O)(=O)NCCOC)ccc1-2	0.405
CCOC(=O)N1CCN(C(=O)/C=C/c2ccc3c(c2)OCO3)CC1	0.0645
CCCCn1nnnc1SCC(=O)N1CCOCC1	0.271
CS(=O)(=O)Nc1ccc(C(=O)NCc2cccnc2)cc1	0.614
COc1ccc(-c2nnc(SC(C)C(=O)Nc3c(C)n(C)n(-c4ccccc4)c3=O)o2)cc1 (stereo not given)	0.336
Cc1sc(NC(=O)CSc2ncn(-c3ccccc3)n2)nc1-c1ccccc1	-0.427
CCCCCCC(=O)N=Nc1c(O)[nH]c2ccc([N+](=O)[O-])cc12	-0.0753
COc1ccc(Cl)cc1NC(=O)NCCCl	-0.124
COc1cc(CO)ccc1Oc1nnnn1-c1ccc(C(N)=O)cc1	-0.0931
Cc1cccc(NC(=O)/C(C#N)=C/c2ccc(Sc3ccccc3)o2)c1C	0.0856
CCOC(=O)c1c(C2COc3ccccc3O2)csc1NC(=O)c1ccccc1 (stereo not given)	-0.287
CC(=O)Nc1ccc(Cc2ccncc2)cc1	0.145
CCOc1ccccc1OCC(=O)Nc1ccc(S(=O)(=O)Nc2nc(C)cc(C)n2)cc1	0.12
CCc1ccc(N2CC(C(=O)OCC(=O)Nc3cc(C)on3)CC2=O)cc1 (stereo not given)	-1.65
O=C(COC(=O)c1cccnc1)Nc1ccccc1	0.274
c1coc(CNc2nc3ccccc3n2CCN2CCOCC2)c1	-0.389
CCOC(=O)c1c(NC(=O)C(C)Sc2cccc[n+]2[O-])sc2c1CCN(Cc1ccccc1)C2 (stereo not given)	-0.721
COc1ccc(C)cc1S(=O)(=O)N1CCC(C)CC1	-0.432
CCC(=O)NCCn1ccc2ccccc21	0.191
NCCCCCc1nnc(SCc2ccccc2Cl)o1	1.74

SMILES	z-score
O=C(COc1ccc(Cl)cc1)NCc1nnc(SCC(=O)Nc2ccc3c(c2)OCCO3)o1	-0.152
CCOC(=O)c1ccc(NC(=O)NC2CC3CCC(C2)N3Cc2nnnn2C(C)(C)C)cc1 (stereo not given)	1.36
Cc1ccc(/C(N)=N/OC(=O)c2ccc3c(c2)OCO3)cc1	-0.279
CC1Cc2ccccc2N1Cc1nc2cc(Cl)ccc2c(=O)[nH]1 (stereo not given)	0.357
Cc1cccc(OCCC(=O)NCC(=O)Nc2cccc(C)c2C)c1	-0.13
COCCOC(=O)C1=C(C)NC(=O)NC1c1c(Cl)nc2c(C)cccn2c1=O (stereo not given)	0.162
Cc1cccc(C(=O)NCc2ccc(S(N)(=O)=O)cc2)c1[N+](=O)[O-]	0.854
CCCc1nc2ccccc2[nH]1	-0.0405
Cc1ccc2c(c1)nnn2C1CCN(CC(=O)NCCc2nc3ccccc3[nH]2)CC1	-0.0547
COC(=O)c1ccc(NC(=O)c2cccc(OC)c2)cc1	0.446
COc1ccc(CCNC(=O)COc2ncnc3cc([N+](=O)[O-])ccc23)cc1	-0.00921
Cc1nnc(NC(=O)C2C3C=CC(O3)C2C(=O)O)s1 (stereo not given)	0.115
O=c1oc2ccccc2c(NCCc2ccccc2)c1[N+](=O)[O-]	-0.511
O=C(Nc1ccccc1C(=O)OC1CCOC1=O)c1ccco1 (stereo not given)	-0.352
O=C(/C=C1\SC(=O)N(CC(=O)Nc2ccc(Cl)cc2)C1=O)Nc1ccc(F)cc1	0.279
COc1ccc(/C=C/C(=O)OCC(=O)NCC2CCCO2)cc1 (stereo not given)	-0.3
CCOC(=O)Cn1c(C)cc(=O)c2cccc(C)c21	-0.0778
Cc1ccccc1NC(=O)c1cccc(S(=O)(=O)Oc2ccc([N+](=O)[O-])cc2)c1	-0.469
CC(C)(C)NC(=O)CN(C(=O)CNS(=O)(=O)c1ccccc1)c1ccc2c(c1)OCCO2	-0.181
COc1ccc(C(=O)N[C@H]2COC(C)(C)O[C@H]2c2ccccc2)cc1	-0.11
COc1ccc([N+](=O)[O-])cc1NC(=S)NC(NC(=O)C(c1ccccc1)c1ccccc1)C(Cl)(Cl)Cl (stereo not given)	-0.114
COC(=O)CNC(=O)c1ccccc1C	-0.175

SMILES	z-score
N#CC1(P(=O)(c2ccccc2)c2ccccc2)CC1	-0.0596
CC(=O)COC(=O)CNC(=O)c1ccc(Br)cc1	0.0805
COc1ccc2cc3cc(C(=O)NCCN4CCc5ccccc5C4)sc3nc2c1	0.0144
O=C(CSc1nnc(Cn2cnc3ccccc32)o1)c1ccccc1	-0.339
CC(=O)OCCCNc1cc(Sc2ccc(C)cc2)c2nonc2c1[N+](=O)[O-]	0.452
N#CCC(=O)NN=C1CCCCCCCCCCC1	-0.118
COC(=O)CC(NS(=O)(=O)c1cccs1)c1ccccc1Cl (stereo not given)	-0.122
Cc1noc(C)c1CSCC(=O)Nc1nc2ccc(Oc3ccccc3)cc2s1	1.43
CCOc1ccc(-c2c[n+]3c(n2-c2ccccc2)CCCCC3)cc1	0.264
CC(C)OC(=O)Cn1nnc(-c2ccccc2)n1	-0.0359
CC(=O)Nc1cccc(/C(C)=N/NC(=O)c2ccccc2Cl)c1	-0.0913
COc1cc(O)c2c(c1)OC(C)(C)CC2=O	-0.347
Cc1ccc(/C=N/NC(=O)CSc2nc3ccccc3n2C)s1	0.239
CCOC(=O)C1=C(C)NC2=C(C1c1ccc([N+](=O)[O-])cc1)S(=O)(=O)c1ccccc12 (stereo not given)	-0.175
Cc1n[nH]c(C)c1S(=O)(=O)N1CCN(C(=O)c2ccco2)CC1	-0.425
COc1cc(C(=O)Nc2cccc(-c3nncn3C)c2)cc(OC)c1OC	-1.15
COc1cc(NC(=O)c2ccc(NS(=O)(=O)c3c(C)noc3C)cc2)cc(OC)c1	-1.09
O=C(Cn1cnc2c(oc3ccccc32)c1=O)NCC1CCCO1 (stereo not given)	-0.243
Cc1ccc(C(=O)C(C)OC(=O)C2CC(=O)N(C3CCCCC3)C2)cc1 (stereo not given)	0.22
Oc1ccc2cccnc2c1	-0.405
COc1ccc(C(=O)NC(=S)N(CCC(C)C)c2c(N)n(Cc3ccccc3)c(=O)[nH]c2=O)cc1	-0.0755
Cc1ccc(CNC(=O)C23CN(Cc4ccccc4)CC2C(c2ccc([N+](=O)[O-])cc2)=NO3)o1 (stereo not given)	-0.355

SMILES	z-score
COc1cc(OC)cc(C(=O)NC(=S)NNC(=O)c2cnccn2)c1	1.07
CC1CCCCN1C(=O)CSc1ccc(-c2ccc(F)cc2)nn1 (stereo not given)	-0.71
CCOc1ccc(CN2CCN(C(=O)c3ccccc3)CC2)cc1	-0.0651
COc1ccccc1N1CCN(CCCOc2ccc(F)cc2)CC1	0.762
COCCn1cc(C(=O)N2CCN(C)CC2)c2c3ccccc3n(C)c2c1=O	0.38
Cc1ccc(S(=O)(=O)c2nc(C)oc2NCc2ccccc2)cc1	-0.232
O=C(COC(=O)c1cc([N+](=O)[O-])ccc1NCc1ccccc1)NC1CCCCC1	-0.709
Cc1ccc(C)c(NC(=S)NNC(=O)c2csc3c2CCC(C)C3)c1 (stereo not given)	active: 13.8
O=S(=O)(/N=C(/Nc1ccc(F)cc1F)c1ccccc1)c1ccc(Br)cc1	-0.0866
Nc1cccc(S(=O)(=O)NC2=NCCC2)c1	-0.0355
Cc1ccccc1CN1CCN(Cc2ccccc2C(F)(F)F)CC1	-0.0939
CN1CCN(C(=O)Cn2c(=O)oc3cc(S(=O)(=O)NCc4ccccc4)ccc32)CC1	-0.198
O=C(c1ccc2c(=O)n3c(nc2c1)CCCCC3)N1CCN(Cc2ccccc2)CC1	0.219
CN(C(=S)Nc1ccccc1F)C1(c2ccccc2Cl)CCCCC1=O (stereo not given)	0.215
O=C(Nc1cccnc1)c1cccc(F)c1	-0.339
COc1ccccc1C(=O)NC(C)c1ccccc1 (stereo not given)	-0.0683
Cc1nn(CCC(=O)NNC(=S)Nc2ccc(F)cc2)c(C)c1[N+](=O)[O-]	0.0528
O=C(CSc1nc(-c2ccccc2)nn1C(=O)c1ccccc1)Nc1cccc([N+](=O)[O-])c1	-0.523
O=C(c1cccnc1)N1CCN(S(=O)(=O)c2ccc(Cl)cc2)CC1	0.335
O=C(CCCc1ccccc1)NCCN1CCOCC1	-0.295
Cc1ccc(OCc2nc(-c3ccccc3)no2)c(C)c1	-0.0822
CCc1ccc2c(c1)c1nc(C)sc1n2CC(=O)OC	0.0252
